Here are results for 32 sequences from paper PMC12820563, “FoxP3 forms a head-to-head dimer in vivo and stabilizes its multimerization on adjacent microsatellites”.

Some of the results follow.

The test has as its target T1, MBP-FoxP1dN (Mus musculus, UniProt P58462 326-579).
T1 sequence: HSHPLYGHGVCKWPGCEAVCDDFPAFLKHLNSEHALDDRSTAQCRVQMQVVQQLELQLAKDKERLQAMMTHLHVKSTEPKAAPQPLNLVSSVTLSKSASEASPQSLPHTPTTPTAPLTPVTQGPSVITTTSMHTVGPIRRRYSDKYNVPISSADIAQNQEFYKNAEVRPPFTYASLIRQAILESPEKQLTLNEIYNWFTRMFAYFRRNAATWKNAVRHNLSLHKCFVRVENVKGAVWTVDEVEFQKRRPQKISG
The test can be described thus: PD-seq (MBP pull-down with sequencing); 20 mM Tris-HCl pH 7.5, 100 mM NaCl, 1.5 mM MgCl2, 0.4 uM protein, 0.1 uM dsDNA library, 30 min, room temperature, amylose pull-down; high values mean tight binding. Conditions: protein: recombinant; tags: His6-MBP; chain copies: 2; dsDNA, one strand shown. A digest of the protocol:
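His6-MBP-tagged mouse FoxP3 or FoxP1 fragment lacking the N-terminus, expressed in E. coli, was mixed at 0.4 µM with 0.1 µM Klenow-filled double-stranded degenerate DNA library. Incubation was 30 min at room temperature in Tris pH 7.5 buffer with NaCl and MgCl2. Complexes were caught on amylose resin and washed three times; DNA was released with proteinase K, PCR-barcoded and Illumina-sequenced. Binding is reads-per-million enrichment, pull-down over input, with replicates pooled.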
In the case of “GATGATTGTTCTCCCAGCTGATGAATTAGCACACTCGAGTAAACAAATTTTCCTAATCTTTCTGTTCAAGCGCCATCTAC”, the binding signal was 0.921 RPM ratio (pull-down/input).

For the sequence “GATGATTGTTCTCCCAGCTGATGAATTGGCTGTGTCGAGTAAACAAATTTTCCTAATCTTTCTGTTCAAGCGCCATCTAC”, the binding signal is 0.893 RPM ratio (pull-down/input).

In the case of “GATGATTGTTCTCCCAGCTGATGAATTACGTACTTCGAGTAAACAAATTTTCCTAATCTTTCTGTTCAAGCGCCATCTAC”, the binding signal was 1.05 RPM ratio (pull-down/input).

For “GATGATTGTTCTCCCAGCTGATGAATTGTCACTCTCGAGTAAACAAATTTTCCTAATCTTTCTGTTCAAGCGCCATCTAC”, the binding signal is 1.05 RPM ratio (pull-down/input).

Consider “GATGATTGTTCTCCCAGCTGATGAATTTGGCCCTTCGAGTAAACAAATTTTCCTAATCTTTCTGTTCAAGCGCCATCTAC”, for which the binding signal is 0.862 RPM ratio (pull-down/input).

Turning to “GATGATTGTTCTCCCAGCTGATGAATTCTACATGTCGAGTAAACAAATTTTCCTAATCTTTCTGTTCAAGCGCCATCTAC”, the binding signal was 0.904 RPM ratio (pull-down/input).

As for “GATGATTGTTCTCCCAGCTGATGAATTCCTGTAATCGAGTAAACAAATTTTCCTAATCTTTCTGTTCAAGCGCCATCTAC”, the binding signal was 1.3 RPM ratio (pull-down/input).

With “GATGATTGTTCTCCCAGCTGATGAATTAGCCGTCTCGAGTAAACAAATTTTCCTAATCTTTCTGTTCAAGCGCCATCTAC”, the binding signal is 0.819 RPM ratio (pull-down/input).

For “GATGATTGTTCTCCCAGCTGATGAATTGCCATTCTCGAGTAAACAAATTTTCCTAATCTTTCTGTTCAAGCGCCATCTAC”, the binding signal was 1.01 RPM ratio (pull-down/input).

Regarding “GATGATTGTTCTCCCAGCTGATGAATTCGCTGTGTCGAGTAAACAAATTTTCCTAATCTTTCTGTTCAAGCGCCATCTAC”, the binding signal was 0.881 RPM ratio (pull-down/input).

As for “GATGATTGTTCTCCCAGCTGATGAATTTTGGGAGTCGAGTAAACAAATTTTCCTAATCTTTCTGTTCAAGCGCCATCTAC”, the binding signal was 0.822 RPM ratio (pull-down/input).

With “GATGATTGTTCTCCCAGCTGATGAATTACCGGCATCGAGTAAACAAATTTTCCTAATCTTTCTGTTCAAGCGCCATCTAC”, the binding signal was 1.1 RPM ratio (pull-down/input).

For “GATGATTGTTCTCCCAGCTGATGAATTACTGTACTCGAGTAAACAAATTTTCCTAATCTTTCTGTTCAAGCGCCATCTAC”, the binding signal is 1.04 RPM ratio (pull-down/input).

With “GATGATTGTTCTCCCAGCTGATGAATTCAAGGTCTCGAGTAAACAAATTTTCCTAATCTTTCTGTTCAAGCGCCATCTAC”, the binding signal was 0.852 RPM ratio (pull-down/input).

For the sequence “GATGATTGTTCTCCCAGCTGATGAATTGCACTAATCGAGTAAACAAATTTTCCTAATCTTTCTGTTCAAGCGCCATCTAC”, the binding signal was 1.34 RPM ratio (pull-down/input).

On to “GATGATTGTTCTCCCAGCTGATGAATTGACGGTTTCGAGTAAACAAATTTTCCTAATCTTTCTGTTCAAGCGCCATCTAC”, for which the binding signal was 0.976 RPM ratio (pull-down/input).

With “GATGATTGTTCTCCCAGCTGATGAATTACGCGCATCGAGTAAACAAATTTTCCTAATCTTTCTGTTCAAGCGCCATCTAC”, the binding signal is 1.27 RPM ratio (pull-down/input).

On to “GATGATTGTTCTCCCAGCTGATGAATTCGACACGTCGAGTAAACAAATTTTCCTAATCTTTCTGTTCAAGCGCCATCTAC”, for which the binding signal is 0.896 RPM ratio (pull-down/input).

As to “GATGATTGTTCTCCCAGCTGATGAATTAGGAGCGTCGAGTAAACAAATTTTCCTAATCTTTCTGTTCAAGCGCCATCTAC”, the binding signal was 0.913 RPM ratio (pull-down/input).

Turning to “GATGATTGTTCTCCCAGCTGATGAATTCTGTCTCTCGAGTAAACAAATTTTCCTAATCTTTCTGTTCAAGCGCCATCTAC”, the binding signal is 0.793 RPM ratio (pull-down/input).

In the case of “GATGATTGTTCTCCCAGCTGATGAATTTGAGAATTCGAGTAAACAAATTTTCCTAATCTTTCTGTTCAAGCGCCATCTAC”, the binding signal is 0.916 RPM ratio (pull-down/input).

Regarding “GATGATTGTTCTCCCAGCTGATGAATTCTTCTATTCGAGTAAACAAATTTTCCTAATCTTTCTGTTCAAGCGCCATCTAC”, the binding signal is 0.984 RPM ratio (pull-down/input).

“GATGATTGTTCTCCCAGCTGATGAATTGCGGTCCTCGAGTAAACAAATTTTCCTAATCTTTCTGTTCAAGCGCCATCTAC”: the binding signal was 0.916 RPM ratio (pull-down/input).

As to “GATGATTGTTCTCCCAGCTGATGAATTAGGACCATCGAGTAAACAAATTTTCCTAATCTTTCTGTTCAAGCGCCATCTAC”, the binding signal was 0.945 RPM ratio (pull-down/input).

Consider “GATGATTGTTCTCCCAGCTGATGAATTATCAACATCGAGTAAACAAATTTTCCTAATCTTTCTGTTCAAGCGCCATCTAC”, for which the binding signal is 2.09 RPM ratio (pull-down/input).

Regarding “GATGATTGTTCTCCCAGCTGATGAATTTGCATCATCGAGTAAACAAATTTTCCTAATCTTTCTGTTCAAGCGCCATCTAC”, the binding signal is 1.65 RPM ratio (pull-down/input).

For “GATGATTGTTCTCCCAGCTGATGAATTGGTGGCCTCGAGTAAACAAATTTTCCTAATCTTTCTGTTCAAGCGCCATCTAC”, the binding signal was 0.879 RPM ratio (pull-down/input).

On to “GATGATTGTTCTCCCAGCTGATGAATTCAGCACATCGAGTAAACAAATTTTCCTAATCTTTCTGTTCAAGCGCCATCTAC”, for which the binding signal was 0.96 RPM ratio (pull-down/input).

With “GATGATTGTTCTCCCAGCTGATGAATTACACACGTCGAGTAAACAAATTTTCCTAATCTTTCTGTTCAAGCGCCATCTAC”, the binding signal is 1.26 RPM ratio (pull-down/input).

For “GATGATTGTTCTCCCAGCTGATGAATTCGAAACCTCGAGTAAACAAATTTTCCTAATCTTTCTGTTCAAGCGCCATCTAC”, the binding signal is 0.795 RPM ratio (pull-down/input).

For the sequence “GATGATTGTTCTCCCAGCTGATGAATTTTAGACATCGAGTAAACAAATTTTCCTAATCTTTCTGTTCAAGCGCCATCTAC”, the binding signal was 1.05 RPM ratio (pull-down/input).

For the sequence “GATGATTGTTCTCCCAGCTGATGAATTCGAACGGTCGAGTAAACAAATTTTCCTAATCTTTCTGTTCAAGCGCCATCTAC”, the binding signal was 0.787 RPM ratio (pull-down/input).
